# In all, about 43,000 compounds went through this assay and about 200 (0.47%) were called active. Inconclusive results (about 12%) are left out. Calls come from the whole dose curve; as a rule, active = well fitted cell-killing curve with a large enough effect; inconclusive = small, poorly fitted or top-dose-only effect, or effect the other way; inactive = flat fitted curve, though single readings scatter. The list shows a part of the results.
# Experiment: Cell viability qHTS assay in S16 Pmp22-F2sN cells; note: nearly all actives have a fitted effect of over 65% in size
# Settings: S16 Pmp22-F2sN Schwann cells (luciferase reporters placed in the Pmp22 gene) viability, CellTiter-Glo, 24 h; series mostly up to 57.5 µM; activity change, negative = cytotoxicity: at the top concentration
# How it was run: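 Rat S16 Schwann reporter line, 24 h treatment with library compounds delivered at 23 nL per well. Cell viability by CellTiter-Glo luminescence.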
# % is set by controls: 0 for no effect and ±100 for the full control effect.
row,SMILES,"activity change, negative = cytotoxicity"
1,CCCCn1c(CCNC(=O)c2ccc(F)cc2)nc2ccccc21,inactive: -5.91%
2,COc1ccccc1CNc1nc(-c2ccco2)nn1C(=O)c1ccccc1[N+](=O)[O-],inactive: 0.242%
3,COc1cccc(CNC(=O)Cn2cc3c(n2)-c2c(oc(C(=O)N4CCOCC4)c2C)CC3)c1,inactive: -12.1%
4,COC(=O)c1ccccc1NC(=O)CSc1nc2sc3c(c2c(=O)[nH]1)CCCC3,inactive: -0.406%
5,O=C(CN1C(=O)C2CCCCN2c2ccc(C(=O)N3CCCC3)cc21)NCc1ccccc1 (configuration not stated),inactive: 3.93%
6,COCCCNC(=O)Cn1c(=O)n(-c2cccc(C)c2)c(=O)c2c3c(sc21)CN(C(C)=O)CC3,inactive: 13.1%
7,CCc1cccc(C)c1NC(=O)C1CCCN(S(=O)(=O)c2cccc3nsnc23)C1 (configuration not stated),inactive: 0.538%
8,CCN(C(=O)CSc1nnc(-c2ccc(Cl)cc2)o1)c1ccccc1,inactive: -9.23%
9,CN(C)c1ccc(CNc2nc(-c3ccco3)nn2S(=O)(=O)c2ccc(Cl)cc2)cc1,inactive: 16.7%
10,COc1ccc(-n2c(-c3ccc(F)cc3)cn3c4c(=O)n(C)c(=O)n(C)c4nc23)cc1,inactive: 6.13%
11,CCOc1ccc2ncc3c(-c4ccccc4)nn(CC(=O)Nc4cccc(F)c4)c3c2c1,inactive: 1.18%
12,O=C(Cn1c(=O)oc2ccccc21)NCc1ccccc1Cl,inactive: 9.29%
13,O=C(CSc1nc2c(c(=O)[nH]1)CCCC2)Nc1cccc(O)c1,inactive: -5.72%
14,COc1cc2[nH]c(=O)n(CCCC(=O)NCc3ccccc3Cl)c(=O)c2cc1OC,inactive: -2.35%
15,COCCCNC(=O)C1CCN(c2nnc(-n3cccc3CNc3ccc(C)cc3)s2)CC1,inactive: -1.63%
16,Cc1cc(OCCn2c(C3CC(=O)N(Cc4ccc(F)cc4)C3)nc3ccccc32)ccc1Cl (configuration not stated),inactive: -2.23%
17,COc1ccccc1CNC(=O)Cn1c(=O)oc2ccccc21,inactive: 1.92%
18,CCOc1ccc(CCNC(=O)c2ccc(Cn3c(=O)c4cccn4c4cccnc43)cc2)cc1,inactive: 1.19%
19,O=C(c1ccc2c(c1)N(Cc1ccccc1F)C(=O)c1ccccc1S2(=O)=O)N1CCCCCC1,inactive: 16.6%
20,CCCNC(=O)c1cc2n(n1)CCCN(Cc1ccc(F)cc1)C2=O,inactive: -1.09%
21,O=C(CSCc1nc2cccnc2n1C1CCCCC1)NCc1cccc(Br)c1,inactive: -6.96%
22,O=C(OCc1ccccc1)c1ccc(-c2nnn(Cc3ccccc3F)n2)cc1,inactive: 6.2%
23,Cc1ccc2scc(N3CCN(c4ccccc4)CC3)c(=O)c2c1,inactive: 13.9%
24,CCOc1ccc(CCNC(=O)c2ccc3[nH]c(C)c(C)c3c2)cc1,inactive: -16.3%

row,SMILES,"activity change, negative = cytotoxicity"
1,O=C(C1COc2ccccc2O1)N(Cc1cccnc1)c1nc2ccc(F)cc2s1 (configuration not stated),inactive: 11%
2,CCOC(=O)c1sc(N2C(=O)c3oc4ccc(F)cc4c(=O)c3C2c2cccc(OC)c2)nc1C (configuration not stated),inactive: 1.67%
3,CCN(C(=O)Cn1c(SCc2ccccc2F)nc2cccnc21)c1ccccc1,inactive: -1.74%
4,Cc1ccc(C)c(NC(=O)C2CCCN(S(=O)(=O)c3cccc4nsnc34)C2)c1 (configuration not stated),inactive: -11.1%
5,CCCCC(=O)NC1(C(F)(F)F)C(=O)Nc2c1c(=O)[nH]c(=O)n2-c1ccc(F)cc1 (configuration not stated),inactive: 0.271%
6,COc1cc(Cl)c(NS(=O)(=O)c2ccc3[nH]c(=O)ccc3c2)c(OC)c1,inactive: 3.11%
7,CCC1CCCCN1C(=O)Cn1c(=O)n(-c2ccccc2C(F)(F)F)c(=O)c2c(C)c(C(=O)N(C)C)sc21 (configuration not stated),inactive: 2.15%
8,COc1ccccc1N1CCN(C(c2ccccc2)c2nnc(-c3ccccc3Cl)o2)CC1 (configuration not stated),inactive: -5.38%
9,Cc1ccc(NC(=O)Cn2c(=O)n(Cc3nc(-c4ccccc4)no3)c(=O)c3cc4c(cc32)OCO4)cc1C,inactive: -6.86%
10,CCOc1ccc(OCC)c(NC(=O)CN(c2ccc(C)cc2)S(=O)(=O)c2c(C)n[nH]c2C)c1,inactive: 9.54%
11,CCOc1ccc(NC(=O)C(CC)n2nc(-c3ccc(C)c(C)c3)ccc2=O)cc1 (configuration not stated),inactive: 0.585%
12,COc1ccc(C2CC(=O)c3c([nH]c(C(=O)OC4CCCC4)c3C)C2)cc1OC (configuration not stated),inactive: 3.94%
13,O=C(CN1C(=O)COc2ccc(S(=O)(=O)Nc3ccccc3)cc21)NCc1ccccc1Cl,inactive: 3.86%
14,CCOC(=O)c1c(S(=O)(=O)N2CCC(C(=O)Nc3cccc(C#N)c3)CC2)c(C)n(C)c1C,inactive: -3.29%
15,CCN(CC)S(=O)(=O)c1ccc(C(=O)NC2CC(=O)N(c3ccc4c(c3)OCCO4)C2)cc1 (configuration not stated),inactive: 14.4%
16,COc1ccc(CCNc2nc(SCc3ccccc3Cl)nc3ccccc23)cc1OC,inactive: 0.535%
17,COc1ccc(NC(=O)Cn2c(=O)n(CCc3ccccc3)c(=O)c3sc4ccccc4c32)cc1,inactive: 2.49%
18,O=S1(=O)c2ccccc2N(Cc2ccccc2Cl)c2ccccc21,inactive: -0.866%
19,COc1cccc(NC(=O)C(=O)NCCc2sc(-c3cccc(C)c3)nc2C)c1,inactive: -3.9%
20,CCC1CN(C(=O)NCc2cccc(OC)c2)c2ccccc2O1 (configuration not stated),inactive: 1.34%
21,COc1ccc(-c2[nH]c(-c3ccccc3)nc2SCC(=O)NC2CCCC2)cc1,inactive: -1.94%
22,COc1ccc(CCNC(=O)c2cc3c(=O)n(C)c4cc(Cl)ccc4c3s2)cc1OC,inactive: 16.7%
23,Cc1ccc(-c2ccc(=O)n(CC(=O)NC(C)c3ccccc3)n2)cc1 (configuration not stated),inactive: -3.4%
